Here are results for 27 molecules from the antibiotic and cytotoxicity screens of Wong et al. (2023).

The list shows a part of the results.

One test relates to HSkMC. The experiment in a line: cytotoxicity call (relative viability < 0.9). The conditions noted are these: 10 µM.
For another test, the system named is HepG2. Kind of test: cytotoxicity call (relative viability < 0.9). The conditions noted are these: 10 µM.
The next test has as its system S. aureus RN4220. The experiment in a line: growth inhibition call (relative growth <= 0.2). The conditions noted are these: 50 µM.

With `Cc1noc(C)c1S(=O)(=O)Nc1ccc2c(c1)C(=O)N([C@@H](C)CO)C[C@H](C)[C@@H](CN(C)Cc1ccccc1)OCCCC[C@H](C)O2`, the cytotoxicity call in the test on HSkMC and in the test on HepG2 was “inactive” in each case. For the same molecule, the growth inhibition call in the test with S. aureus RN4220 is “inactive”.

As to `C=CC[C@@H](CC(=O)N[C@H](CO)Cc1ccccc1)C(=O)N[C@@H](COC(=O)[C@@H](CC=C)NC(=O)OCC1c2ccccc2-c2ccccc21)Cc1c[nH]c2ccccc12`, the cytotoxicity call in the test on HSkMC is “active”. In addition, the cytotoxicity call in the test with HepG2 is “inactive”. For the same molecule, the growth inhibition call with S. aureus RN4220 was “inactive”.

Regarding `Cc1noc(C)c1NC(=O)Nc1ccc2c(c1)C(=O)N([C@@H](C)CO)C[C@@H](C)[C@H](CN(C)Cc1ccc(C(=O)O)cc1)OCCCC[C@H](C)O2`, the cytotoxicity call with HSkMC and with HepG2 was “inactive” each time. Also, the growth inhibition call in the test with S. aureus RN4220 is “inactive”.

Consider `CN1CCN(C(=O)CNS(=O)(=O)c2ccccc2)CC1`, for which the cytotoxicity call with HSkMC and in the test with HepG2 was “inactive” in each case. The growth inhibition call with S. aureus RN4220 was “inactive”.

On to `C[C@@H]1CCCCO[C@@H](CN(C)C(=O)Nc2ccc(C(F)(F)F)cc2)[C@H](C)CN([C@H](C)CO)C(=O)c2cc(N(C)C)ccc2O1`, for which, in the test with HSkMC, the cytotoxicity call was “inactive”. Moreover, the cytotoxicity call in the test with HepG2 is “active”. Besides, the growth inhibition call with S. aureus RN4220 is “inactive”.

As to `Cc1ccc(S(=O)(=O)N(C)C[C@@H]2OCCCC[C@@H](C)Oc3ccc(NC(=O)C4CCCCC4)cc3C(=O)N([C@H](C)CO)C[C@H]2C)cc1`, the cytotoxicity call with HSkMC and with HepG2 was “inactive” each time. For the same molecule, the growth inhibition call in the test with S. aureus RN4220 is “inactive”.

`C[C@H](CO)N1C[C@H](C)[C@@H](CN(C)CC2CC2)OCCCC[C@H](C)Oc2ccc(NC(=O)Nc3ccccc3)cc2C1=O`: the cytotoxicity call in the test on HSkMC and in the test on HepG2 was “inactive” throughout. Also, the growth inhibition call in the test on S. aureus RN4220 is “inactive”.

Take `CCS(=O)(=O)NCc1nccc(N(C)C)n1`: the cytotoxicity call in the test with HSkMC and with HepG2 was “inactive” in each case. In addition, the growth inhibition call in the test with S. aureus RN4220 is “inactive”.

For the molecule `C[C@H](CO)N1C[C@H](C)[C@H](CN(C)S(=O)(=O)c2ccc(Oc3ccccc3)nc2)OCc2cnnn2CCCC1=O`, the cytotoxicity call with HSkMC and with HepG2 was “inactive” each time. In the test on S. aureus RN4220, the growth inhibition call was “inactive”.

With `c1ccc([C@@H]2CCC[C@H](c3ccccc3)S2)cc1`, the cytotoxicity call with HSkMC and in the test on HepG2 was “inactive” in each case. Also, the growth inhibition call with S. aureus RN4220 was “inactive”.

Regarding `C[C@@H]1CN([C@@H](C)CO)C(=O)c2cc(NS(=O)(=O)c3ccc(Cl)cc3)ccc2O[C@@H](C)CCCCO[C@H]1CN(C)CC1CCCCC1`, the cytotoxicity call in the test on HSkMC and with HepG2 was “inactive” each time. Further, in the test on S. aureus RN4220, the growth inhibition call was “inactive”.

As for `C[C@H]1CN([C@@H](C)CO)C(=O)c2ccccc2-c2ccccc2CO[C@H]1CN(C)C(=O)Nc1ccc(F)cc1`, the cytotoxicity call in the test with HSkMC and in the test with HepG2 was “inactive” throughout. In addition, the growth inhibition call in the test on S. aureus RN4220 was “inactive”.

Regarding `COc1ccc(NC(=O)Nc2ccc3c(c2)C(=O)N([C@@H](C)CO)C[C@H](C)[C@H](CN(C)C(=O)Nc2ccc(F)cc2)OCCCC[C@H](C)O3)cc1`, the cytotoxicity call in the test with HSkMC and in the test on HepG2 was “inactive” throughout. Moreover, the growth inhibition call in the test with S. aureus RN4220 is “inactive”.

Consider `O=C(O)[C@]1(O)C[C@@H](O)[C@@H](O)[C@H](O)C1`, for which the cytotoxicity call with HSkMC and in the test with HepG2 was “inactive” each time. The growth inhibition call in the test on S. aureus RN4220 is “inactive”.

In the case of `CCN(CC)S(=O)(=O)c1ccc(CN2C(=O)[C@]3(CC(=O)N(CCOC)C3=O)c3cc(F)ccc32)cc1`, the cytotoxicity call in the test with HSkMC and in the test on HepG2 was “inactive” in each case. In the test on S. aureus RN4220, the growth inhibition call was “inactive”.

For `C[C@@H]1CN([C@@H](C)CO)C(=O)c2cc(NS(C)(=O)=O)ccc2O[C@@H]1CN(C)C(=O)Nc1ccc2c(c1)OCO2`, the cytotoxicity call in the test on HSkMC and with HepG2 was “inactive” in each case. In the test on S. aureus RN4220, the growth inhibition call was “inactive”.

On to `C[C@H]1CN([C@@H](C)CO)C(=O)c2cccc(NC(=O)c3ccncc3)c2O[C@@H]1CN(C)S(=O)(=O)c1cn(C)cn1`, for which the cytotoxicity call with HSkMC and in the test on HepG2 was “inactive” throughout. Further, the growth inhibition call with S. aureus RN4220 is “inactive”.

As for `C[C@@H]1CN([C@H](C)CO)C(=O)CCCn2cc(nn2)CO[C@@H]1CN(C)C(=O)Nc1ccc(C(C)(C)C)cc1`, the cytotoxicity call in the test on HSkMC and with HepG2 was “inactive” throughout. For the same molecule, in the test with S. aureus RN4220, the growth inhibition call is “inactive”.

Regarding `C[C@H]1CCCCO[C@H](CN(C)C(=O)Nc2ccc(C(F)(F)F)cc2)[C@@H](C)CN([C@@H](C)CO)C(=O)c2cc(NC(=O)C3CCCCC3)ccc2O1`, the cytotoxicity call in the test with HSkMC and in the test with HepG2 was “inactive” each time. The growth inhibition call in the test on S. aureus RN4220 is “inactive”.

For `COc1ccc(S(=O)(=O)N(C)C[C@@H]2Oc3cc(C#CC4CC4)ccc3S(=O)(=O)N([C@@H](C)CO)C[C@@H]2C)cc1`, the cytotoxicity call in the test with HSkMC and with HepG2 was “inactive” each time. Further, the growth inhibition call in the test with S. aureus RN4220 was “inactive”.

In the case of `O=C1CNCCN1C1CCCC1`, the cytotoxicity call in the test with HSkMC and in the test with HepG2 was “inactive” in each case. Moreover, the growth inhibition call in the test on S. aureus RN4220 is “inactive”.

Take `O=c1cc(CO)occ1O`: the cytotoxicity call with HSkMC and with HepG2 was “inactive” each time. The growth inhibition call with S. aureus RN4220 was “inactive”.

Regarding `Cc1cc(C(=O)Nc2cccc3c2O[C@H](CN(C)S(=O)(=O)c2cn(C)cn2)[C@@H](C)CN([C@H](C)CO)C3=O)n(C)n1`, the cytotoxicity call in the test with HSkMC and in the test on HepG2 was “inactive” in each case. For the same molecule, the growth inhibition call in the test on S. aureus RN4220 is “inactive”.

As to `C[C@H](CO)N1C[C@H](C)[C@@H](CN(C)CC2CC2)Oc2c(NS(=O)(=O)c3ccc(F)cc3)cccc2C1=O`, the cytotoxicity call in the test on HSkMC (human skeletal muscle cells) and in the test on HepG2 was “inactive” each time. Moreover, the growth inhibition call in the test on S. aureus RN4220 is “inactive”.

For `O=C(C[C@@H]1CC[C@@H](NC(=O)c2cnccn2)[C@H](CO)O1)NCc1ccccc1F`, the cytotoxicity call in the test with HSkMC and in the test on HepG2 was “inactive” throughout. Also, the growth inhibition call in the test with S. aureus RN4220 was “inactive”.

For the molecule `O=C(NCC[C@H]1CC[C@H](NS(=O)(=O)c2cccc(F)c2)[C@@H](CO)O1)C1CC1`, the cytotoxicity call with HSkMC and in the test on HepG2 was “inactive” each time. For the same molecule, in the test on S. aureus RN4220, the growth inhibition call is “inactive”.

Turning to `NCCC(=O)N[C@@H](Cc1cnc[nH]1)C(=O)O.[Zn+3]`, the cytotoxicity call in the test with HSkMC and with HepG2 was “inactive” each time. In addition, in the test with S. aureus RN4220, the growth inhibition call was “inactive”.
